Test results from PubChem BioAssay AID488895 (Broad Institute, 2010).
The campaign covered roughly 340,000 compounds. About 120 (0.035%) were called active. The shares of active, inactive and inconclusive entries below differ from those in the screen.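 The calls were made as follows: active = mean replicate inhibition at least 50% and at least half of replicates individually reaching 50%; inconclusive = only one of the two criteria met; inactive = neither criterion met.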

Test: E. coli Tat export inhibitors, primary screen, MC4100, TorA-mCherry reporter, fluorescence, single point (AID 488895);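 also: exported cargo escapes ClpAP degradation while cytoplasmic cargo is degraded and loses fluorescence; 0% = median of neutral control wells and 100% = median of NaSCN control wells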
Conditions: at 10 µM, stronger effect = higher value

Row | Structure (SMILES) | inhibition
1 | Nc1cc(OC(=O)c2ccc(F)cc2)nn1S(=O)(=O)c1ccc(F)cc1 | inconclusive: 35.6%
2 | C#CCOCCOCCOCCNc1nc(N2CCN(C(=O)Cn3cc(CC(C)O)nn3)CC2)nc(N2CCN(C(=O)[C@H](CCCCN)n3cc(CCCC)nn3)CC2)n1 (stereo partly specified) | inconclusive: 27.1%
3 | Cc1ccc(CC(=O)NCCS(=O)c2ccc(Cl)cc2)cc1 (stereo unspecified) | inconclusive: 31.9%
4 | Brc1ccc(NC2=Nc3ccccc3CC2)cc1 | inconclusive: 34%
5 | CC(=O)c1ccc([C@H]2C[C@@]34CN(C(=O)OC(C)(C)C)S(=O)(=O)[C@H]3C[C@H]2O4)cc1 | inconclusive: 29.2%
6 | CCCC(=O)c1c[nH]c(C(=O)N2CCOCC2)c1 | inconclusive: 27.4%
7 | CCC(CC)C(=O)Nc1nnc(S(=O)(=O)N2CCCCCC2)s1 | inconclusive: 25%
8 | CCn1c(NC(=O)c2cccs2)nc2ccccc21 | inactive: -2.68%
9 | Cc1cccc(-c2nnc(-c3cccc(NC(=O)Cc4cccs4)c3)o2)c1 | inconclusive: 33.1%
10 | O=C(CCNS(=O)(=O)c1ccccc1C(F)(F)F)NCCCN1CCOCC1 | inconclusive: 35.5%
11 | CCN1CCN(Cc2ccc(NC(=O)c3cc(NC(=O)c4cncc(-c5ccc(C#N)cc5)c4)cc(OC)c3)cc2C(F)(F)F)CC1 | inconclusive: 42.6%
12 | CC(C)(C)c1nn2cnnc2n(/N=C/c2cccc3ccccc23)c1=O | inconclusive: 27.6%
13 | Cc1nn(C)c(Oc2ccc(Cl)cc2)c1C=O | inactive: -0.515%
14 | O=C(NCc1cccs1)Nc1cccc(Cl)c1 | inconclusive: 28.6%
15 | Cc1ccc2cc(CCNC(=O)C(=O)c3c(C)[nH]c4ccccc34)c(=O)[nH]c2c1 | inconclusive: 28.8%
16 | Cc1cc(C)c2oc(=O)cc(CN3CCN(Cc4ccc5c(c4)OCO5)CC3)c2c1 | inconclusive: 24.1%
17 | CS(=O)(=O)Nc1ccc(C(=O)NCC2CCCO2)cc1 (stereo unspecified) | inactive: 0.345%
18 | O=C(CN1C(=O)NC2(CCCCC2)C1=O)NCc1cccs1 | inconclusive: 25%
19 | COc1cc(OC)cc(C(=O)NC2CC(C)(C)NC(C)(C)C2)c1 | inconclusive: 22.7%

Row | Structure (SMILES) | inhibition
20 | Cc1cccnc1NC(=O)c1cccc(S(=O)(=O)N2CCCc3ccccc32)c1 | inconclusive: 32%
21 | Clc1cccc(N2CCN(Cc3ccc(Br)o3)CC2)c1 | inconclusive: 34%
22 | Cc1ccc(CNC(=O)COC(=O)c2cccnc2Cl)cc1 | inconclusive: 26%
23 | CCc1nnc(NS(=O)(=O)c2ccc(N=Cc3c(C)[nH]n(-c4ccc(Cl)cc4)c3=O)cc2)s1 | inactive: -8.26%
24 | O=C(C1CCCO1)N1CCN(c2c3c(nc4cc(-c5ccc(F)cc5)nn24)CCC3)CC1 (stereo unspecified) | inconclusive: 36.5%
25 | Cc1c(Cl)cccc1NC(=S)N=Nc1c(O)n(CN2CCOCC2)c2ccccc12 | inactive: 18.6%
26 | COc1ccc(-n2nc3c(N4CCC(C(=O)NCc5ccccc5C)CC4)nnc(C)c3c2C)cc1 | inconclusive: 39.9%
27 | CCN(CC)Cc1c(C(=O)N/N=C/c2cccs2)nnn1-c1nonc1N | inconclusive: 31.8%
28 | COC(=O)c1ccc(C2CC(=O)Nc3cc(OC)c(OC)cc32)cc1 (stereo unspecified) | inconclusive: 30%
29 | C#CCn1c(O)c(N=NC(=O)C(O)c2ccccc2)c2ccccc21 (stereo unspecified) | inconclusive: 23.1%
30 | O=C(Nc1cc(S(=O)(=O)N2CCOCC2)ccc1N1CCCC1)c1ccc(Cl)cc1 | inconclusive: 29%
31 | CCC(=O)c1cn(CC(=O)Nc2ccc(OC)cc2)c2ccccc12 | inactive: -9.54%
32 | Cc1ccc(-c2nc(CS(=O)CC(=O)NCc3ccccc3)c(C)o2)cc1 (stereo unspecified) | inactive: -13%
33 | COc1ccc(S(=O)(=O)NCCc2ccccc2)c2cccnc12 | inactive: 0.207%
34 | CCCCCCN1Cc2ccccc2C1 | inactive: 2.36%
35 | CCOC(=O)CC(=O)Nc1ccccc1C(=O)O | inconclusive: 29.1%
36 | COc1ccc2nc(SCC(=O)Nc3cc(OC)c(OC)cc3C(=O)O)c(C)cc2c1 | inconclusive: 32.8%
37 | CCCCOC(=O)C1=C(C)NC(=O)NC1c1ccc2c(c1)OCO2 (stereo unspecified) | inconclusive: 35.5%
38 | CC(/C=C\C=C\c1ccccc1)=N\NC(=O)c1cncc(Br)c1 | inconclusive: 18.4%

Row | Structure (SMILES) | inhibition
39 | COc1cc(C2OC(c3cc(OC)c(OC)c(OC)c3)C(C)C2C)cc(OC)c1OC (stereo unspecified) | inactive: -3.59%
40 | COc1ccc(NC(=O)CC2(CC(=O)O)CCCC2)cn1 | inconclusive: 33.4%
41 | Cc1ccc(-c2cc(C(F)F)n3ncc(C(=O)Nc4ccc(S(=O)(=O)Nc5ccccc5C)cc4)c3n2)cc1 | inconclusive: 31.2%
42 | Cc1noc(NS(=O)(=O)c2ccc(NC(=O)CC34CC5CC(CC(Br)(C5)C3)C4)cc2)c1C | inconclusive: 34.6%
43 | Cc1occc1C(=O)NCc1cccc(CNC(=O)c2ccoc2C)c1 | inconclusive: 26.7%
44 | Nc1nnnn1CC(=O)N/N=C/c1ccc(-c2cccc(Cl)c2)o1 | inconclusive: 21.5%
45 | CCCNC(=O)COc1coc(CN2CCN(c3ccccc3F)CC2)cc1=O | inconclusive: 34%
46 | COc1cccc(C2C(C(=O)OC(C)C)=C(C)Nc3ncnn32)c1 (stereo unspecified) | inconclusive: 31.2%
47 | O=C(CSc1cccc2cccnc12)N/N=C/c1ccncc1 | inconclusive: 29.1%
48 | Cc1cc(C(=O)NNC(=O)Nc2cccc(C(F)(F)F)c2)no1 | inactive: -7.64%
49 | Cc1cccc(-c2cc(=O)c(C(=O)O)cn2-c2ccc(F)cc2F)c1 | inactive: 6.79%
50 | CC(NC(=O)CCNC(=O)c1ccco1)c1ccccc1 (stereo unspecified) | inactive: -2.34%
51 | CCOc1ccc(NC(=O)c2ccc(NC(=O)COC(=O)Cc3ccc(OC)cc3)cc2)cc1 | inconclusive: 34.9%
52 | C=CCNC(=S)Nc1cccc2[nH]ncc12 | inconclusive: 28.5%
53 | CCOC(=O)c1ccc(NC(=O)c2cn(CCC#N)nc2-c2ccc3c(c2)OCCO3)cc1 | inconclusive: 40.1%
54 | CC(C)(C)CC(=O)Nc1cccc(-c2cn3cccnc3n2)c1 | inconclusive: 30.5%
55 | CCCOc1ccccc1/C=N/Nc1ccnc(=O)[nH]1 | inactive: 3.55%
56 | Nc1ncnc2c1ncn2C1OC(COP(=O)(O)O)C(O)C1O (stereo unspecified) | inactive: -0.021%
